According to article PMC4484057:
No constants are given. Whether binding was seen depends on the method and setting. Some entries that bind do so weakly or less than the wild type. Tags and fused reporters may be left off the sequences shown.

Protein sequences, listed by entry. Tags and fused reporters are not part of them.
UniProt P08753: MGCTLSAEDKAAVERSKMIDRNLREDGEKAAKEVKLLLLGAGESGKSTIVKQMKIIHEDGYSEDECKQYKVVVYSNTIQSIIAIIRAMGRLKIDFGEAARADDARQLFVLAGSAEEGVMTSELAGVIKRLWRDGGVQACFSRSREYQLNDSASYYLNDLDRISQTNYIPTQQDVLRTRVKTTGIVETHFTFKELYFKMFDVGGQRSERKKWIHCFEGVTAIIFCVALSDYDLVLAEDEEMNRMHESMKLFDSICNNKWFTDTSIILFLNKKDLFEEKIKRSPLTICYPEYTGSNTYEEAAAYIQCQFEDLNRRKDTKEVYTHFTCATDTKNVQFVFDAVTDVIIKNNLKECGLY
UniProt P59215: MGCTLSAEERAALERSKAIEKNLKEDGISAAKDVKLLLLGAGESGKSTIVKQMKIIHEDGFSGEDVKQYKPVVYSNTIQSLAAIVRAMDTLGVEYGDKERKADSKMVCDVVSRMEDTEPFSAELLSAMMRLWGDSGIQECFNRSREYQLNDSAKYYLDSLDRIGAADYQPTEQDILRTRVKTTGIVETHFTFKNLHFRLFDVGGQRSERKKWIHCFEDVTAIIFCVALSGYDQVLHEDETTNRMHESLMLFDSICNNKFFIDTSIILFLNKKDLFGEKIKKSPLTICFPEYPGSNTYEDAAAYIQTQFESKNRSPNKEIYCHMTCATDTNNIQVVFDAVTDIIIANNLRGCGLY

What was measured:
GST-Gαi3 (rat) [1] = biological target: GST-Gαi3 (rat) (UniProt P08753); assay: pull-down; competition: GST-Gαi3 preloaded with GDP on glutathione-agarose beads (∼0.3 mM as printed) with a fixed concentration (∼0.2 mM as printed) of His-Daple-CT and increasing KB-752 or His-GIV-CT; anti-His immunoblot; both purified
GST-Gαi3 (rat) [2] = biological target: GST-Gαi3 (rat) (UniProt P08753); assay: condition: only GST-Gαi3 loaded with GTPγS (active); pull-down; as a2, but GST-Gαi3 preloaded with 30 µM GTPγS (active); both purified
GST-Gαo (rat) = GST-Gαo (rat) (UniProt P59215); assay: pull-down; GST-Gα protein (5 µg) preloaded with GDP (inactive) on glutathione beads; purified His-Daple-CT (3 µg); 4 hr at 4°C; 50 mM Tris-HCl pH 7.4, 100 mM NaCl, 0.4% NP-40, 10 mM MgCl2, 5 mM EDTA, 30 µM GDP, 2 mM DTT; immunoblot; both purified
GST-Gαi3 (rat) [3] = biological target: GST-Gαi3 (rat) (UniProt P08753); assay: condition: only GST-Gαi3 loaded with GDP/AlF4- (active); pull-down; as a2, but GST-Gαi3 preloaded with 30 µM GDP/30 µM AlCl3/10 mM NaF (GDP + AlF4-, active); both purified
GST-Gαi3 (rat) [4] = biological target: GST-Gαi3 (rat) (UniProt P08753); assay: pull-down; GST-Gα protein (5 µg) preloaded with GDP (inactive) on glutathione beads; purified His-Daple-CT (3 µg); 4 hr at 4°C; 50 mM Tris-HCl pH 7.4, 100 mM NaCl, 0.4% NP-40, 10 mM MgCl2, 5 mM EDTA, 30 µM GDP, 2 mM DTT; immunoblot; both purified

B1: His-GIV-CT (aa 1660–1870) (domain or fragment, UniProt Q3V6T2 1660-1870)
chain: ISETLESRHHKIKTGSPGSEVVTLQQFLEESNKLTSVQIKSSSQENLLDEVMKSLSVSSDFLGKDKPVSCGLARSVSGKTPGDFYDRRTTKPEFLRPGPRKTEDTYFISSAGKPTPGTQGKIKLVKESSLSRQSKDSNPYATLPRASSVISTAEGTTRRTSIHDFLTKDSRLPISVDSPPAAADSNTTAASNVDKVQESRNSKSRSREQQS
binding (GST-Gαi3 (rat) [1]): binds

B2: His-Daple-CT (aa 1650–2028) (domain or fragment, UniProt Q9P219-1 1650-2028)
chain: GTAPPYVGVRPCSASPSSEMVTLEEFLEESNRSSPTHDTPSCRDDLLSDYFRKASDPPAIGGQPGPPAKKEGAKMPTNFVAPTVKMAAPTSEGRPLKPGQYVKPNFRLTEAEAPPSVAPRQAQPPQSLSLGRPRQAPVPPASHAPASRSASLSRAFSLASADLLRASGPEACKQESPQKLGAPEALGGRETGSHTLQSPAPPSSHSLARERTPLVGKAGSSCQGPGPRSRPLDTRRFSLAPPKEERLAPLHQSATAPAIATAGAGAAAAGSGSNSQLLHFSPAAAPAARTKPKAPPRSGEVATITPVRAGLSLSEGDGVPGQGCSEGLPAKSPGRSPDLAPHLGRALEDCSRGSVSKSSPASPEPGGDPQTVWYEYGCV
binding (GST-Gαi3 (rat) [2]): no binding | binding (GST-Gαo (rat)): no binding | binding (GST-Gαi3 (rat) [3]): no binding

B3: His-Daple-CT F1675A (aa 1650–2028) (domain or fragment, UniProt Q9P219-1 1650-2028)
chain: GTAPPYVGVRPCSASPSSEMVTLEEALEESNRSSPTHDTPSCRDDLLSDYFRKASDPPAIGGQPGPPAKKEGAKMPTNFVAPTVKMAAPTSEGRPLKPGQYVKPNFRLTEAEAPPSVAPRQAQPPQSLSLGRPRQAPVPPASHAPASRSASLSRAFSLASADLLRASGPEACKQESPQKLGAPEALGGRETGSHTLQSPAPPSSHSLARERTPLVGKAGSSCQGPGPRSRPLDTRRFSLAPPKEERLAPLHQSATAPAIATAGAGAAAAGSGSNSQLLHFSPAAAPAARTKPKAPPRSGEVATITPVRAGLSLSEGDGVPGQGCSEGLPAKSPGRSPDLAPHLGRALEDCSRGSVSKSSPASPEPGGDPQTVWYEYGCV
binding (GST-Gαi3 (rat) [4]): no binding
